Assay results taken from publication PMC3939360.
Substitutions are numbered along the chain they refer to. Results are given in words; binding and its absence hold for the method and conditions named. In cells and extracts the contact can be indirect. Some binding calls cover weakened binding; strength is not graded here. Tags and fused reporters may be left off the sequences shown. Values belong to the molecule of their own block, whether it stands above or below them.

Amino acid sequences for entries named in this document (tags omitted). Residues count along the entry.
UniProt Q13017, residues 382-1007: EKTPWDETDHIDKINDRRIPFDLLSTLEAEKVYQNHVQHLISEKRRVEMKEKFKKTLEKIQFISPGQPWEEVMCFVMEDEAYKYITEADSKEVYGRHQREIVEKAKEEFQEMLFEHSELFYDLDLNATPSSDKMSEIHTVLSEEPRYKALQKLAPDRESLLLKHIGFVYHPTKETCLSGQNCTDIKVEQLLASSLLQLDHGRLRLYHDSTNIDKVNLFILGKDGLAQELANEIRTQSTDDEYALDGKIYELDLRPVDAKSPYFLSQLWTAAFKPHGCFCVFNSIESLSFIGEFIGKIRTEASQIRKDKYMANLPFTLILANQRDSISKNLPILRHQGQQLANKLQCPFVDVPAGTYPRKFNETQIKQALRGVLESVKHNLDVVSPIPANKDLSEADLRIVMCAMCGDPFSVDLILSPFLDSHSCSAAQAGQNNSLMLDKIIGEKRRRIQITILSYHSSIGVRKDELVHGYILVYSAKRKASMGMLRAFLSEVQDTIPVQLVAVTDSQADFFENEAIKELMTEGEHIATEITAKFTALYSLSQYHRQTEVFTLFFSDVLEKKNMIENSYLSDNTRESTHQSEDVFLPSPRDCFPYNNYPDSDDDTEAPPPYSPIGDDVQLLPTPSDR
UniProt O43157, residues 20-2135: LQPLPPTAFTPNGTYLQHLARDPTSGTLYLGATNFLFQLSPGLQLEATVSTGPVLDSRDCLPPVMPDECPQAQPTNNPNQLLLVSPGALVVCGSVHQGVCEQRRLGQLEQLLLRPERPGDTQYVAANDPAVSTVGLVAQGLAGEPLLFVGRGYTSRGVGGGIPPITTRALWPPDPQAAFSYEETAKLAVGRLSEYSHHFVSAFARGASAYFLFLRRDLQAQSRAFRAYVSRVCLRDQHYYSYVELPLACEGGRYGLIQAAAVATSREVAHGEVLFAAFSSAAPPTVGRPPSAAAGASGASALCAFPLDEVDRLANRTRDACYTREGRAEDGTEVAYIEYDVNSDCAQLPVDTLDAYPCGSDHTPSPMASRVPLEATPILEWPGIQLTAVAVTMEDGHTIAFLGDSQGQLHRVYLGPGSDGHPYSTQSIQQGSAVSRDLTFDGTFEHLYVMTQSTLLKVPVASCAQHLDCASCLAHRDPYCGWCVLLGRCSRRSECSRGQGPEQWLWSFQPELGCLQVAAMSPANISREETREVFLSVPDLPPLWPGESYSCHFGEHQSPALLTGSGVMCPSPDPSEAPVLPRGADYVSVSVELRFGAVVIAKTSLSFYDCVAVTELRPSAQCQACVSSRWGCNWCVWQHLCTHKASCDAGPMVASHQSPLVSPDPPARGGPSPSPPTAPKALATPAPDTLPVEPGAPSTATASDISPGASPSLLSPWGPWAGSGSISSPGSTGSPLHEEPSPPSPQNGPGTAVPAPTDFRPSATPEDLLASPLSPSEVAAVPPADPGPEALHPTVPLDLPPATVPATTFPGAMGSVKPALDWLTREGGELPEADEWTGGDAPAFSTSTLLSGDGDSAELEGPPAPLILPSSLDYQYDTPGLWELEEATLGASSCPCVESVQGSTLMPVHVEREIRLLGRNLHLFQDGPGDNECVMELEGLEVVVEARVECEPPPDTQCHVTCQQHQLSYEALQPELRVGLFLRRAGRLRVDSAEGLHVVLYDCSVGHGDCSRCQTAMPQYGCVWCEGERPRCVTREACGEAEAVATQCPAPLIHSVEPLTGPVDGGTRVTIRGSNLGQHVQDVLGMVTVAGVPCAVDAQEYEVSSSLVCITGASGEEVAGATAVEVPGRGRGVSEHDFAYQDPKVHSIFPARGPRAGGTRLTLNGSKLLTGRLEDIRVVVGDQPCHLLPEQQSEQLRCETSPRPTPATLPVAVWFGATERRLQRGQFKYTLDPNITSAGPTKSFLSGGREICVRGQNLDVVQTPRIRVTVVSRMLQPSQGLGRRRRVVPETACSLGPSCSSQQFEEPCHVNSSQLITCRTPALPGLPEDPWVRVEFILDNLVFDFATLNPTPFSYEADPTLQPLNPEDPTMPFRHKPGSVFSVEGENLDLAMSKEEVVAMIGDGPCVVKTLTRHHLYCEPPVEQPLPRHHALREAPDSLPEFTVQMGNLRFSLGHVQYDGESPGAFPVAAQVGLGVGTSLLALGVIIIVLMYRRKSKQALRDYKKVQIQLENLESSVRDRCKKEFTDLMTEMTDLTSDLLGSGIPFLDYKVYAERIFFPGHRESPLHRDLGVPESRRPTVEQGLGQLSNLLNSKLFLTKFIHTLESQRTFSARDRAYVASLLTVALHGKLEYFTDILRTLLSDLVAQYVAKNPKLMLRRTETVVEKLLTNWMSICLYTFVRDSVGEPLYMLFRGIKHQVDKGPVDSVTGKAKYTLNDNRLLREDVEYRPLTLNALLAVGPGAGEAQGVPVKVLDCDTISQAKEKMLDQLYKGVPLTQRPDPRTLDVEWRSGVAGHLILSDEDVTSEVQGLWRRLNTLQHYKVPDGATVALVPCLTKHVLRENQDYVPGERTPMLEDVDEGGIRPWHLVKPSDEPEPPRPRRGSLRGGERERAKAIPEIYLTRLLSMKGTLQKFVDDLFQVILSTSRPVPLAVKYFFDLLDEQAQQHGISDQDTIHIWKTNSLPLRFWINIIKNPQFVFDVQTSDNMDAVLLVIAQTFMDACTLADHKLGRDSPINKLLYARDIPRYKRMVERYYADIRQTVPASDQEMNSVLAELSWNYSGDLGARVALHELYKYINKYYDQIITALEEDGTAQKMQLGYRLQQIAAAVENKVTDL

Assays:
[1] = molecular target: T1, FLAG-tagged Rnd3 (UniProt P61587); experiment: co-IP; competition: COS7 cells co-transfected with 5 μg pCMV5-FLAG-Rnd3, pCMV-Myc-Δp190B and increasing pcDNA-VSV-PlexinB2 (0.5, 1, 2 and 5 μg); lysates immunoprecipitated with anti-FLAG M2 antibody, immunoblotted with the indicated antibodies
T1 sequence: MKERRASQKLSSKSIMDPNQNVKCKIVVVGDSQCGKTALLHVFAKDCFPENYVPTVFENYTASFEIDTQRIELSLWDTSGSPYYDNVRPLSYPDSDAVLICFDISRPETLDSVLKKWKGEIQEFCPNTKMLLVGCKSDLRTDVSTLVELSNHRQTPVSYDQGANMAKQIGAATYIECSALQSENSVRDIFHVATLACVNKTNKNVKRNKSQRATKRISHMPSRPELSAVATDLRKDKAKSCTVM

[2] = molecular target: T1, FLAG-tagged Rnd3; experiment: co-IP; P19 cells co-transfected with FLAG-Rnd and VSV-Plexin plasmids, lysed 24 h later in RIPA-like buffer (50 mM Tris-HCl pH 8, 150 mM NaCl, 0.5% NP40 Igepal, 10% glycerol); lysate incubated overnight at 4 °C with anti-FLAG M2 agarose beads; immunoblot with anti-VSV and anti-FLAG
[3] = molecular target: T1, FLAG-tagged Rnd3; experiment: co-IP; COS7 cells co-transfected with FLAG-Rnd3 or FLAG-Rnd3 T55V and HA-PlexinB2 (cytoplasmic domain); lysates 24 h after transfection immunoprecipitated with mouse anti-FLAG M2 antibody; immunoblot with anti-HA and anti-FLAG
[4] = molecular target: T2, FLAG-Rnd3 T55V (UniProt P61587); experiment: as above
T2 sequence: T1 sequence with T55V

Molecule: Myc-p190RhoGAP-B (middle domain) (from UniProt Q13017 382-1007) (domain or fragment)
binding [1]: binds

Molecule: human VSV-tagged PlexinB1 (from UniProt O43157 20-2135) (receptor)
binding [2]: no binding

binding [3]: binds | binding [4]: no binding
B1: HA-PlexinB2 (cytoplasmic domain) (domain or fragment, UniProt B2RXS4 1223-1842)
chain: CYWRKSQQAEREYEKIKSQLEGLEESVRDRCKKEFTDLMIEMEDQTNDVHEAGIPTLDYKTYTDRVFFLPSKDGDKDVMITGKLDIPESRRPIVEQALYQFSNLLNSKSFLINFIHTLENQREFSARAKVYFASLLTVALHGKLEYYTDIMRTLFLELMEQYVVAKNPKLMLRRSETVVERMLSNWMSICLYQYLKDSAGEPLYKLFKAIKHQVEKGPVDAVQKKAKYTLNDTGLLGDDVEYAPLTVSVIVQDEGIDAIPVKVLNCDTISQVKEKIIDQVYRTQPCSCWPKPDSVVLEWRPGSTAQILSDLDLTSQREGRWKRINTLMHYNVRDGATLILSKVGVSQQPEDSQQDLPGERHALLEEENRVWHLVRPTDEVDEGKSKRGSMKEKERTKAITEIYLTRLLSVKGTLQQFVDNFFQSVLAPGHAVPPAVKYFFDFLDEQAEKHDIRDEDTIHIWKTNSLPLRFWVNILKNPHFIFDVHVHEVVDASLSVIAQTFMDACTRTEHKLSRDSPSNKLLYAKEISTYKKMVEDYYKGIRQMVQVSDQDMNTHLAEISRAHTDSLNTLVALHQLYQYTQKYYDEIINALEEDPAAQKMQLAFRLQQIAAALENKVTDL
